# According to article PMC4336329 (PLoS ONE, 2015):
# Among all 310,000 compounds or so, about 14,000 (4.5%) showed an effect of 50% or more. Effects have a minus sign here. The list shows a part of the results.
# Target: human ether-à-go-go-related gene (hERG) potassium channel (human, UniProt Q12809)
# Test: primary screen, population patch clamp on CHO cells stably expressing hERG
# 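Also: peak tail current of the secondary pulse compared with the same well before compound.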
# Sequence of human ether-à-go-go-related gene (hERG) potassium channel (Q12809 whole entry, looked up): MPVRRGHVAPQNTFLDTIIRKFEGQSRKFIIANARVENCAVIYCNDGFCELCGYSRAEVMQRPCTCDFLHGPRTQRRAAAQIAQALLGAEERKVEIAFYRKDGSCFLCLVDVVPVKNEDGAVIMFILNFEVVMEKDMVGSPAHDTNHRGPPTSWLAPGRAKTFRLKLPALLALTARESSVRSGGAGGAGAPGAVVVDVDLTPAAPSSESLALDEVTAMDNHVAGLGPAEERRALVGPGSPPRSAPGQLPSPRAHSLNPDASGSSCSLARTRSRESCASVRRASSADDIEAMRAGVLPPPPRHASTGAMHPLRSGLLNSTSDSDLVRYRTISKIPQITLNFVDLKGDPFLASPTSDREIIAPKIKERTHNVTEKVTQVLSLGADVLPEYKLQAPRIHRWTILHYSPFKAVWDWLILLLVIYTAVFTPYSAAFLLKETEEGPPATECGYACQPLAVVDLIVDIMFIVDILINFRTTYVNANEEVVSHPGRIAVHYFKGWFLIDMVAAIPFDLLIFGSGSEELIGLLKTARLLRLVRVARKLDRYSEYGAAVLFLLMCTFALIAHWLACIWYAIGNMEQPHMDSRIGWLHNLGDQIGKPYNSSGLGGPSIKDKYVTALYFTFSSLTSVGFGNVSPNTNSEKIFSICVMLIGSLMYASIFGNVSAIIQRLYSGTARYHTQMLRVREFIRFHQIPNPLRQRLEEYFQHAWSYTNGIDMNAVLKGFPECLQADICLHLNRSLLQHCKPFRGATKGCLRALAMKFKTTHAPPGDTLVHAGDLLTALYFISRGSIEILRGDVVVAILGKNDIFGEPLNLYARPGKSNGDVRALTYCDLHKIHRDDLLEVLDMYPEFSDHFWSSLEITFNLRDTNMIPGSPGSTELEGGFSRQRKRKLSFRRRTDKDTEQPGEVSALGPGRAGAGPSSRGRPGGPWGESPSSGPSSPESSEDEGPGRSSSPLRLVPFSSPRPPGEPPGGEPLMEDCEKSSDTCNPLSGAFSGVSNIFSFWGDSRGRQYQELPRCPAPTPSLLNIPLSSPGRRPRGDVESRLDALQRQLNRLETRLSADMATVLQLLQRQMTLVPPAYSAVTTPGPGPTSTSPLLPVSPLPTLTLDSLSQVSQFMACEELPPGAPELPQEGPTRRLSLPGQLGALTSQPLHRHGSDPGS
row,Compound,"hERG current change (%, negative = inhibition) at 10uM [%]"
1,COC(=O)C1=C(C(=O)OC)[C@@H]2N(C)c3ccccc3[C@@]23C[C@@H](CO)N(C(=O)NCCBr)C3=N1,-14.7
2,Cc1[nH]c2ccc(C(=O)N3CCN(Cc4ccccc4)CC3)cc2c1C,-35.1
3,COc1ccc(-c2[nH]ncc2CN(C)C(C)c2ccon2)c(OC)c1 (centres unmarked),20.6
4,COc1ccccc1OCC(O)Cn1c(=N)n(Cc2ccccc2)c2ccccc21.Cl (centres unmarked),-71
5,Cc1ccc(-n2c(O)c(/C=N/Nc3ccccc3)c(=O)[nH]c2=O)cc1C,2.86
6,COc1ccc(OC)c(C(=O)NC(CC(N)=O)c2ccc(NC(C)C)c([N+](=O)[O-])c2)c1 (centres unmarked),-38.2
7,C(=N\n1cnnc1SCc1ccccc1)/c1ccco1,-1.71
8,CCCc1nc(C)c(-c2ccc(OC)c(OC)c2)c(=O)[nH]1,3.64
9,Cc1[nH]c2ccccc2c1C(=O)CN1CCC2(CC1)OCCO2,-13.3
10,COc1ccc(-n2c(O)c(C(C)=NCc3ccc4c(c3)OCO4)c(=O)[nH]c2=O)cc1,6.04
11,Cc1nc(CNS(=O)(=O)c2ccc(F)cc2)cs1,6.96
12,Cc1ccc(-n2nc3c(N4CCC(C(=O)N5CCN(C)CC5)CC4)nnc(C)c3c2C)cc1,11.9
13,CCN(CC)S(=O)(=O)c1ccc(NC(=O)c2cc(=O)[nH]c3ccccc23)cc1,10.5
14,Cc1ccc([N+](=O)[O-])cc1N=C(c1ccc([N+](=O)[O-])cc1)N1CCOCC1,-20.8
15,O=C(NCCSCc1ccc(Cl)cc1)c1cccs1,-63.7
16,CC(C)(C)NC(=O)CSc1nc(O)cc(=O)n1-c1ccccc1F,6.39
17,Cc1csc(SCc2nnc(-c3ccccc3Br)o2)n1,-7.45
18,Cc1ccc(C)c(NC(=O)CSc2nc3ccccc3nc2N2CCOCC2)c1,20.7
19,CCN1CCN(CCCNC(=O)C2CCCN(c3nnc(-n4cccc4)s3)C2)CC1 (centres unmarked),1.47
20,O=C(NC(=S)N1CCc2ccccc21)c1ccco1,8.41
21,Cc1ccc(OCC(=O)Nc2nc(C)c(Cl)cc2Cl)c([N+](=O)[O-])n1,-1.21
22,CCOC(=O)c1c(NC(=O)C(=O)N/N=C/c2ccccc2OC)sc2c1CCCCC2,-5.51
23,Cn1c(Cc2cccc3ccccc23)nnc1SCC(=O)N1CCN(c2cccc(Cl)c2)CC1,-25.7
